The campaign covered roughly 310,000 compounds. About 18,000 (5.8%) were called active. Inconclusive means that the source gave no clear call. Such entries were picked first, then a sample of the others. The call rests on the fitted dose curve; in most records, active means well fitted inhibition curve with a large enough effect; inconclusive means small, poorly fitted or top-dose-only effect, or another doubt; inactive means no such curve, though single readings can be large or run the other way. Potencies of inconclusive entries are left out as doubtful fits.
Assay: Primary qHTS for delayed death inhibitors of the malarial parasite plastid, 48 hour incubation
Conditions: P. falciparum luciferase growth in erythrocytes; series mostly up to 28.7 µM; activity change, negative = inhibition: at the top concentration
In short: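 Luciferase-expressing parasites in RBCs, 2% Hct / 0.1% parasitemia final; RPMI 1640 + 0.5% Albumax; 37 C, 5% CO2, one generation; luminescence read-out, lower signal = inhibition.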
On the % scale 0 is the no-effect control and ±100 the full control effect; potency means the concentration at half of the fitted maximal effect; tags describe the fitted curve by direction and shape.

| SMILES | activity change, negative = inhibition | Potency |
| --- | --- | --- |
| N#CCCn1cc(C(=O)Nc2ccc(F)cc2)c(-c2ccccc2)n1 | inactive: 4.37% | – |
| CC1CN(C(=S)SCCN2C(=O)CCC2=O)CC(C)O1 (centres undefined) | inactive: 20% | – |
| CCCCOc1ccc(NC(=O)Nc2nnc(C)s2)cc1 | inactive: 29.1% | – |
| Cc1ccc2[nH]c(C(=O)Nc3ccc(F)cc3)cc2c1 | inactive: -10.9% | – |
| COc1c(C)cc(C(=O)C2CCCN(C(=O)c3ccc4cc[nH]c4c3)C2)cc1C (centres undefined) | – | inconclusive [inhibitor, single point] |
| Cc1ccc(C(=O)Nc2ccccc2)cc1S(=O)(=O)N1CCN(C)CC1 | – | inconclusive [inhibitor, partial curve] |
| Cc1nn2c(NCc3cccnc3)c3c(nc2c1-c1ccccc1)CCC3 | – | inconclusive [inhibitor, partial curve, poor fit] |
| O=C(NC1CCCC1)C(=O)N(c1ccccc1F)C(C(=O)NCC1CCCO1)c1cccs1 (centres undefined) | – | inconclusive [inhibitor, single point] |
| C[C@]1(CC/C(=C/CO)CO)[C@H](CO)CC[C@@]23COC(=O)C2=CCC[C@@H]31 | inactive: -11% | – |
| CCOC(=O)c1nn(-c2ccccc2)c(=O)cc1SC(C)C | – | inconclusive [inhibitor, full curve, poor fit] |
| C=CCOCCN1C(=O)C2C(c3ccccc3)C=CC(c3ccccc3)C2C1=O (centres undefined) | – | inconclusive [inhibitor, single point] |
| CCN(CCO)C(=O)CC(c1ccccc1)c1cc(Br)ccc1O (centres undefined) | – | inconclusive [inhibitor, single point] |
| Cc1cc(C)n(-c2nc3ccccc3c(=O)n2OC2CCCCC2)n1 | – | inconclusive [inhibitor, partial curve, poor fit] |
| CN(C)S(=O)(=O)N1CCC(Oc2cccc(C(=O)NC3CCCCCC3)c2)CC1 | – | inconclusive [inhibitor, single point] |
| Cc1ccccc1CS(=O)(=O)Cc1ccc(C(=O)NCc2ccccn2)o1 | – | inconclusive [inhibitor, partial curve, poor fit] |
| CC(=O)N1CCOc2ccc(S(=O)(=O)NCc3ccc(C)cc3)cc21 | inactive: -23.1% | – |
| c1cc2c(cc1CN1CCN(C3CCCCCC3)CC1)OCO2 | inactive: -13.9% | – |
| O=C(NC1CCNCC1)C1CCCCC1 | – | inconclusive [inhibitor, single point] |
| Cc1cc(C)nc(NC(=NCc2ccc3c(c2)OCO3)NC(=O)Nc2ccccc2)n1 | – | inconclusive [inhibitor, single point] |
| Cc1ccc(CN(C(=O)c2ccco2)C(C(=O)NC2CCCC2)c2cccnc2)cc1 (centres undefined) | – | inconclusive [inhibitor, single point] |
| Cc1ccc(/C=N/NC(=O)c2ccc(NC(=O)c3ccccc3Cl)cc2)o1 | – | inconclusive [inhibitor, partial curve, poor fit] |
| CC(C)NC(=O)C1(S(=O)(=O)c2ccccc2)CC=CC1 | inactive: 53.7% | – |
| COc1cccc(OC)c1C(=O)Nc1nc(N)n(-c2ccccc2)n1 | inactive: -4.99% | – |

| SMILES | activity change, negative = inhibition | Potency |
| --- | --- | --- |
| CC(C)CCNC(=O)C(c1ccco1)N(C(=O)Cn1nnc2ccccc21)c1ccc2c(c1)OCO2 (centres undefined) | – | inconclusive [inhibitor, single point] |
| Cc1cc(C)n(CCCN2CCC(C(=O)Nc3cccc(-c4cccc(F)c4)c3)CC2)n1 | – | inconclusive [inhibitor, single point] |
| Cc1c(Nc2cc(N3CCCCCC3)c3nonc3c2[N+](=O)[O-])c(=O)n(-c2ccccc2)n1C | – | inconclusive [inhibitor, partial curve, poor fit] |
| Cc1cccc(OCC(=O)NC(Cc2c[nH]c3ccccc23)C(=O)O)c1C (centres undefined) | – | inconclusive [inhibitor, partial curve] |
| CCCCC[n+]1ccn(-c2nc3ccccc3nc2[N-]S(=O)(=O)c2ccc(C)cc2)c1 | inactive: -16.1% | – |
| O=C(Nc1cccc2ccccc12)c1nn(C23CC4CC(CC(C4)C2)C3)cc1[N+](=O)[O-] | – | inconclusive [inhibitor, full curve] |
| S=c1[nH]nc(COc2ccccc2)n1-c1ccccc1 | – | inconclusive [inhibitor, full curve, poor fit] |
| O=S(=O)(C/C(=C/CO)S(=O)(=O)c1ccccc1)c1ccccc1 | – | inconclusive [inhibitor, partial curve, poor fit] |
| O=C(NC(=S)NC1CCS(=O)(=O)C1)c1ccccc1Br (centres undefined) | inactive: -4.5% | – |
| c1cc2[nH]snc2c2nc(C3CC3)nc12 | inactive: 19.5% | – |
| COc1cccc(NC(=O)Nc2nnc(-c3ccccc3SCc3ccccc3)s2)c1 | – | inconclusive [inhibitor, partial curve] |
| O=C(NC1CCN(Cc2ccccc2)CC1)c1cccc(S(=O)(=O)Nc2ccc(F)cc2)c1 | – | active: 4.15 µM |
| CCCCNS(=O)(=O)c1ccc2nc(SCC(=O)Nc3cccc(F)c3)[nH]c2c1 | inactive: -15.8% | – |
| O=C(Nc1cccc(Cl)c1)Nc1ccc(Br)cc1F | – | inconclusive [inhibitor, single point] |
| CCN(CC)CCC(c1cc(OC)c(OC)c(OC)c1)c1c(O)cc(OC)cc1OC (centres undefined) | – | active: 3.29 µM |
| Cc1ccc(CNC(=O)CNC(=O)[C@@H]2Cc3ccccc3CN2C(=O)OC(C)(C)C)cc1 | – | inconclusive [inhibitor, partial curve] |
| CCc1ccc(NC(=O)C(=O)N/N=C(\C)CC(=O)Nc2ccccn2)cc1 | inactive: 77.4% | – |
| O=C(NCc1nc2ccccc2[nH]1)c1ccc(S(=O)(=O)N2CCOCC2)cc1 | – | inconclusive [inhibitor, partial curve] |
| CCOC(=O)C(Nc1ccc2ccccc2c1)C(=O)OCC | – | inconclusive [inhibitor, single point] |
| CCN(CC)S(=O)(=O)c1ccc(OC)c(NC(=O)c2ccc(-n3cncn3)c([N+](=O)[O-])c2)c1 | – | inconclusive [inhibitor, single point] |
| CCOc1cccc(NC(=O)c2ccc(S(=O)(=O)N3CCCC3)cc2)c1 | – | inconclusive [inhibitor, partial curve] |
| COc1cccc(C(=O)NCCSc2c(C)[nH]c3ccccc23)c1OC | – | inconclusive [inhibitor, partial curve, poor fit] |
| COc1cccc(C(=O)NNC(=O)Cc2csc(N)n2)c1 | inactive: -7.67% | – |

| SMILES | activity change, negative = inhibition | Potency |
| --- | --- | --- |
| CC(C)Oc1ccc(S(=O)(=O)N2CCOCC2)cc1NC(=O)CC1CCCC1 | – | active: 9.28 µM |
| COc1ccc(-n2c(COc3ccc(C)cc3)nnc2SCC(N)=O)cc1 | – | inconclusive [inhibitor, full curve] |
| CC(=O)Nc1ccc(CN2CCCC(CO)(Cc3cccc(Cl)c3)C2)cc1 (centres undefined) | – | inconclusive [inhibitor, single point] |
| CN1CCN(c2ccccc2NC(=O)c2ccc(-c3ccccc3)cc2)CC1 | – | inconclusive [inhibitor, single point] |
| COc1ccc(C[C@H]2CN3C(=NC[C@@H]3C(C)C)N2C[C@H](C)NC(=O)c2ccc(C)c(Br)c2)cc1 | – | inconclusive [inhibitor, full curve, poor fit] |
| COc1ccc(CC(=O)NCc2ccc(F)cc2)cc1S(=O)(=O)N1CCOCC1 | – | inconclusive [inhibitor, single point] |
| O=C(Nc1cc(Br)ccc1O)c1cc(-c2ccccc2)on1 | – | active: 2.08 µM |
| Cc1onc(-c2ccccc2Cl)c1C(=O)NC(=S)Nc1ccc(C(C)C)cc1 | – | active: 5.22 µM |
| CC(C)NC(=O)c1cc2cc(Br)ccc2oc1=O | – | inconclusive [inhibitor, partial curve, poor fit] |
| CCCNC(=S)Nc1cc2oc3ccccc3c2cc1OC | – | inconclusive [inhibitor, single point] |
| CCOC(=O)c1ccc(NC(=S)NCCC2=CCCCC2)cc1 | – | inconclusive [inhibitor, partial curve, poor fit] |
| COCCN(CCOc1cc(C)cc(C)c1)Cc1ccc(Cl)cc1 | – | inconclusive [inhibitor, partial curve, poor fit] |
| Cc1oc(C)c2c(=O)ccc3c(c12)OC(N)=C(C#N)C3c1ccccc1Cl (centres undefined) | – | inconclusive [inhibitor, full curve, poor fit] |
| CC(NC(=O)c1ccccc1)C(=O)OCC(=O)c1c(N)n(C)c(=O)n(C)c1=O (centres undefined) | – | inconclusive [inhibitor, single point] |
| C/C(=N\Nc1ccc(C(=O)O)cc1)c1ccc(-n2ccnc2)cc1 | inactive: 247% | – |
| CCC(Oc1ccccc1)C(=O)NCCCN1CCOCC1 (centres undefined) | inactive: 1.83% | – |
| COc1ccc(N2CCN(C(=O)CCNS(=O)(=O)c3cccs3)CC2)cc1 | inactive: -6.99% | – |
| COc1cc(SC)ccc1C(=O)Nc1cccc(S(=O)(=O)NC2=NCCC2)c1 | – | inconclusive [inhibitor, single point] |
| CCOC(=O)C1(CC2CCCCO2)CCN(Cc2nccn2-c2ccc(OC)cc2)CC1 (centres undefined) | – | active: 10.4 µM |
| O=C(COC(=O)c1cccnc1Cl)Nc1ccc2c(c1)OCCO2 | inactive: 26% | – |
| CC(C)OCCCNc1ncnc2c1[nH]c1ccc(F)cc12 | – | inconclusive [inhibitor, partial curve] |
| Cc1ccc(NC(=O)CCCC2CCCCC2)c(O)c1 | inactive: -3.64% | – |
| COc1cc(/C=C2/SC(=O)N(CC(=O)N3CCCC3)C2=O)ccc1Oc1ccc([N+](=O)[O-])cn1 | – | inconclusive [inhibitor, single point] |

Reference: PubChem BioAssay AID504832 (National Center for Advancing Translational Sciences (NCATS), 2011)
